Measurements from US11180452B2, “Methods and compositions for selectively inhibiting pathogenic microbes” (priority 2019, dated 2021).

Experiments:
Format in all cases: cell-based
[1] = system: Francisella tularensis strains; test: microbe, parasite or virus in culture
[2] = system: Burkholderia cenocepacia NRRL: B-59561; test: microbe, parasite or virus in culture
[3] = system: Burkholderia thailandensis Brett et al ATCC: 700388; test: microbe, parasite or virus in culture
Bacillus thuringiensis = conditions: for MIC: Bacillus thuringiensis
N. gonorrhoeae = N. gonorrhoeae MIC; conditions: Neisseria gonorrhoeae, strain #167
C. albicans = test: Candida albicans MIC / MFC
Trichophyton rubrum = test: MIC against Trichophyton rubrum; conditions: Trichophyton rubrum Castellani Sabouraud ATCC: 28188
Candida glabrata = Candida glabrata MIC / MFC; conditions: Nakaseomyces glabratus
[4] = system: cell wall synthesis of S. aureus; test: Macromolecular synthesis assay, glucosamine incorporation into cell wall; conditions: dose-response, FIG. 2A-2B
[5] = system: Francisella tularensis subsp. Holarctica Strain LVSR NR-597; test: microbe, parasite or virus in culture

SMILES: Brc1ccc2[nH]cc(Sc3ccccc3Br)c2c1 [Compound 174I, 5-bromo-3-((2-bromophenyl)thio)-1H-indole]
- MIC50 [1]: 2 µg/mL (≈ 5.22 µM)
- MIC ([1]; read-out: MAX, highest MIC over the Francisella tularensis strains): 8 µg/mL (≈ 20.9 µM)
- MIC ([1]; read-out: MIN, lowest MIC over the Francisella tularensis strains): 1 µg/mL (≈ 2.61 µM)
- MIC [2]: > 50 µg/mL
- MIC [3]: > 50 µg/mL
- MBC (Bacillus thuringiensis; Bacillus thuringiensis Berliner ATCC: 10792): 1.56 µg/mL (≈ 4.07 µM)
- MIC (Bacillus thuringiensis; ATCC10792, […]): 1.56 µg/mL (≈ 4.07 µM)
- MIC (Bacillus thuringiensis; Bacillus thuringiensis Berliner ATCC: 10792, read-out: MIC): 0.78 µg/mL (≈ 2.04 µM)
- MIC (Bacillus thuringiensis; […]): 1.56 µg/mL (≈ 4.07 µM)
- MIC (Bacillus thuringiensis; strain B-1596): 1.56 µg/mL (≈ 4.07 µM)
- MIC (N. gonorrhoeae): 1.56 µg/mL (≈ 4.07 µM)
- MFC (C. albicans; C. albicans strain #761): 25 µg/mL (≈ 65.3 µM)
- MFC (C. albicans; C. albicans strain #762): 6.25 µg/mL (≈ 16.3 µM)
- MIC (Trichophyton rubrum): 1.19 µg/mL (≈ 3.11 µM)
- MFC (Candida glabrata; C. glabrata strain #325): 50 µg/mL (≈ 131 µM)
- MFC (Candida glabrata; C. glabrata strain #584 (Table 7)): > 50 µg/mL
- MFC (Candida glabrata; Candida glabrata #584 (Table 2), minimum fungicidal concentration): > 50 µg/mL
- cell wall synthesis inhibition (glucosamine incorporation) [4]: substantial cell wall synthesis inhibition
- MIC [5]: < 0.39 µg/mL

≈ marks a conversion by molar mass, not a printed value. Where two headings read alike, the source gives them in different places.
